Source: PubChem BioAssay AID624172 (National Center for Advancing Translational Sciences (NCATS), 2012)
Among all 380,000 compounds or so, about 25 (0.007%) were called active. The inconclusive results got no clear call from the source; some entries with a clear call stand among them for comparison. The call rests on the fitted dose curve; in most records, active means well fitted activation curve with a large enough effect; inconclusive means small, poorly fitted or top-dose-only effect; inactive means no such curve, though single readings can be large or run the other way. Potencies of inconclusive entries are left out as doubtful fits.

molecular target: Glucagon-like peptide 1 receptor (Homo sapiens) (UniProt P43220); assay: qHTS of GLP-1 Receptor Agonists; conditions: HEK293 GLP-1R CRE-luciferase, luminescence, 4-6 h, cells express a hypersensitive GLP-1R form; activation: at 45.6 µM (top of the series) unless noted; on activation: % of control where 0% means no effect
Potency means the concentration at half of the fitted maximal effect; tags describe the fitted curve by direction and shape.

Sequence of UniProt P43220 (P43220 whole entry, looked up): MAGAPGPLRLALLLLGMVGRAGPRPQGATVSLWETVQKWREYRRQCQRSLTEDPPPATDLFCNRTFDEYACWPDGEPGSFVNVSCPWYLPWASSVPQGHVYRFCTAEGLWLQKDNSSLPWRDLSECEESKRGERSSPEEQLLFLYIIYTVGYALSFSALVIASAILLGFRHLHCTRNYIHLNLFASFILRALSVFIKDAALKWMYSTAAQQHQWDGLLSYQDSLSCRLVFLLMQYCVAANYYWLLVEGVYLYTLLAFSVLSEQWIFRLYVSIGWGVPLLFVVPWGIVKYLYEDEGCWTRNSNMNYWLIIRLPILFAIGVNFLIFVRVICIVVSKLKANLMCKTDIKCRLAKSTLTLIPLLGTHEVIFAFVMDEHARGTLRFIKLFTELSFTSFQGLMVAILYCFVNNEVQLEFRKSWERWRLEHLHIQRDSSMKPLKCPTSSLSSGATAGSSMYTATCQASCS

SMILES | activation | Potency
Cc1ccc(S(=O)(=O)N2CN(Cc3ccco3)c3nc4ccccc4nc32)cc1 | inactive: 0.584% | 
CCN(CC)S(=O)(=O)c1cc(-c2nn(C)c(=O)c3ccccc23)ccc1C |  | inconclusive [activator, single point]
O=C(c1ccccc1)c1ccc(OCCOCCN2CCN(Cc3ccccc3)CC2)cc1 | inactive: 3.59% | 
Clc1ncccc1-c1nnn(-c2ccccc2Br)n1 |  | inconclusive [activator, single point]
COc1ccc(C(=O)Cc2ccccc2)cc1OC |  | inconclusive [activator, full curve, poor fit]
OCC1(Cc2ccc(Cl)cc2)CCN(CCCc2ccccc2)CC1 | inactive: 1.81% | 
O=c1c2cc(Br)ccc2nc2n1CCCCC2 |  | inconclusive [activator, single point]
O=C(OCc1cn([C@@H]2C[C@H](c3ccc(Cl)cc3)N(C(=O)C3CCCCC3)C[C@H]2O)nn1)c1ccccc1 | inactive: 1.98% | 
Cc1cccc2cc(COC(=O)c3ccccc3)c(=O)[nH]c12 | inactive: 17.5% | 
O=C(OC(c1ccccc1)c1nccc2ccccc12)c1cccc([N+](=O)[O-])c1 (stereo unspecified) |  | inconclusive [activator, partial curve, poor fit]
COc1cc(C(=O)NCCSc2ccc(F)cc2)cc(OC)c1OC | inactive: -3.13% | 
COc1cc(NC(=O)COC(=O)C2CC(O)CN2S(=O)(=O)c2ccc(Cl)cc2)c(C)cc1[N+](=O)[O-] (stereo unspecified) |  | inconclusive [activator, partial curve, poor fit]
F[B-](F)(F)COCc1ccccc1Br |  | inconclusive [activator, partial curve, poor fit]
O=C(NCc1ccncc1)[C@@H]1CCCN1C(=O)[C@@H]1CCCN1C(=O)c1cccs1 |  | inconclusive [activator, single point]
CCOC(=O)N1CCN(C(=O)c2ccc3[nH]c(C)c(C)c3c2)CC1 | inactive: 9.52% | 
C[C@@H]1C[C@H](OC(=O)[C@@H](O)c2ccccc2)CC(C)(C)N1C | inactive: 5.75% [at 19.8 µM] | 
COc1ccc(C2CC(c3cccc(C(F)(F)F)c3)=NN2c2ccc(S(N)(=O)=O)cc2)cc1 (stereo unspecified) | inactive: 5.03% | 
COC(=O)c1ccsc1NC(=O)CN1CCN(c2ncccn2)CC1 | inactive: 7.45% | 
CCOC(=O)c1oc2ccccc2c1NC(=O)C(C)(C)C |  | inconclusive [activator, partial curve, poor fit]
CCOc1ccc(OCC)c(NC(=O)CSc2nc3cccnc3n2C)c1 |  | inconclusive [activator, full curve, poor fit]
Cc1cc(NC(=O)C(C)Oc2ccc(Cl)cc2Cl)n(-c2ccccc2)n1 (stereo unspecified) |  | inconclusive [activator, partial curve, poor fit]
O=C(CC1Sc2ncnn2C1=O)Nc1ccc(Cl)cc1 (stereo unspecified) | inactive: -0.0814% | 
CCNc1cc2n(c(=O)n1)CCc1cc(OC)c(OC)cc1-2 | inactive: 29% | 

SMILES | activation | Potency
Cc1[nH]c2ccccc2c1/C=C/C(=O)c1ccncc1 |  | inconclusive [activator, single point]
Cc1ccc(S(=O)(=O)N2CCOC23CCN(C(=O)c2ccc(Cl)cc2Cl)CC3)cc1 | inactive: 10.2% | 
N#Cc1c(Nc2ccccc2Cl)s[nH]c1=O |  | inconclusive [activator, single point]
O=C1CN(CC(=O)N2CCCCC2)c2ccccc2O1 | inactive: 13.4% | 
Cc1cc(Cl)c2oc(C(=O)N(CCO)Cc3ccccc3)c(C)c2c1 |  | inconclusive [activator, partial curve, poor fit]
CCOC(=O)c1c(NC(=O)CN2C(=O)NC3(CCCCC3C)C2=O)sc(C)c1CC (stereo unspecified) |  | inconclusive [activator, single point]
O=C1C2CCCCN2C(=O)N1CCCCN1CCN(c2cccc(Cl)c2)CC1 (stereo unspecified) | inactive: -5.97% | 
Cc1ccc(OCCN2C(=O)c3ccccc3C2=O)cc1 |  | inconclusive [activator, single point]
Cc1cc(C)nc(Nc2cccc(C(F)(F)F)c2)n1 | inactive: -6.99% | 
O=C(CSc1nnc(-c2cccs2)n1Cc1ccco1)Nc1ccc2c(c1)OCO2 |  | inconclusive [activator, full curve, poor fit]
CCOC(=O)c1c(NC=O)sc2c1CCC2 |  | inconclusive [activator, partial curve]
CCOC(=O)c1cnc2c(OC)cccc2c1Oc1ccccc1 |  | inconclusive [activator, single point]
Nc1ccc(Oc2cc(N)cc(Oc3ccccc3)c2)cc1 | inconclusive: 67.3% [activator] | 
CCOC(=O)c1cc(-c2ccc(N)cc2)sc1N |  | inconclusive [activator, single point]
COc1ccc(-c2coc3c(C(=O)NCc4ccc(OC)c(OC)c4)cccc23)c(C)c1 |  | inconclusive [activator, partial curve, poor fit]
CCC1(C)Cc2c(sc3nc(SC)[nH]c(=S)c23)CO1 (stereo unspecified) | inactive: 2.1% | 
Cc1cccc(-c2nc(C#N)c(N3CCCCCC3)o2)c1 |  | inconclusive [activator, single point]
C/C=C/Cn1c(SCc2ccc(C)cc2)nc2c1c(=O)[nH]c(=O)n2C |  | inconclusive [activator, partial curve, poor fit]
CCn1nc(NC(=O)c2cccnc2)c2cc3ccccc3nc21 |  | inconclusive [activator, single point]
COc1cccc(NC(=S)N2CCCC2c2ccc(OC)c(OC)c2)c1 (stereo unspecified) |  | inconclusive [activator, partial curve, poor fit]
COc1ccc([C@H]2CC(=O)C=C(c3cccc(OC)c3OC)C2)cc1OC |  | inconclusive [activator, single point]
CCN(C(=O)c1cc2c(=O)n3cccc(C)c3nc2n1CCCOC)C1CCCCC1 |  | inconclusive [activator, single point]
CN(C)c1ccc(C(=O)c2ccc(N(C)C)c3ccccc23)cc1 |  | inconclusive [activator, partial curve, poor fit]
